According to PubChem BioAssay AID1346428 (National Center for Advancing Translational Sciences (NCATS), 2018):
The whole screen tested about 48,000 compounds, of which about 1,200 (2.5%) were called active. About 2% were inconclusive and are not listed.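 How the source made its calls: active means activation of at least 60% and not above a set upper limit (about 1 call in 100 departs from these limits); inconclusive means activation of 40% to 60%, or above that upper limit; inactive means activation under 40%.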 Some of the results follow.

The compounds below were run against Probable G-protein coupled receptor 32 (Homo sapiens) (UniProt O75388) (assay: qHTS for Agonists of Human Resolvin D1 Receptor DRV1). Settings: CHO-K1 GPR32 beta-arrestin PathHunter luminescence, 90 min; at 76.9 µM; active compounds read high; zero percent set by DMSO-only wells.
Chain of UniProt O75388 (O75388 whole entry, looked up): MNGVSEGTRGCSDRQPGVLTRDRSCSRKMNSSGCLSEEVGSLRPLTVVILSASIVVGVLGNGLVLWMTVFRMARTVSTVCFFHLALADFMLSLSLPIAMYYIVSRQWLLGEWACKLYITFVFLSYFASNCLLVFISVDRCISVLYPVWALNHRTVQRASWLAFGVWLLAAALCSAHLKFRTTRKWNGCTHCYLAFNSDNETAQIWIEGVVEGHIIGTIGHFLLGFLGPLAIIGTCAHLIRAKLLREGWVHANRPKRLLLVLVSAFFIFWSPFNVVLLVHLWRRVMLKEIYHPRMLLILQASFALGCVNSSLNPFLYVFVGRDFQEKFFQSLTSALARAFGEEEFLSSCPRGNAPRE
Summary of the method: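 Cells are plated overnight, treated with compounds in DMSO for 90 minutes at 37 °C, and developed with PathHunter detection reagent for 1 hour before luminescence is read; signal reflects beta-arrestin binding to GPR32 in engineered CHO-K1 cells.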
Further: 0% is about no effect.

activation, inactive:
CC(CNC(=O)C1CCN(C(=O)c2cc3sccc3n2C)CC1)c1ccccc1 (stereo not drawn) 3.15%
Cc1ccc(Cl)cc1Nc1nn2c(=O)c3ccc(C(=O)NC(C)c4ccccc4)cc3nc2s1 (stereo not drawn) 0.577%
O=C(C1CCCCC1)N1CC(=O)N2CCCc3ccccc3C2C1 (stereo not drawn) -10.4%
CCOc1cccc(NC(=O)C2CC(=O)N(C)C(=Nc3ccc(OC)cc3)S2)c1 (stereo not drawn) 20.2%
Cn1nc(C(=O)NCc2ccccc2)c2c1-c1ccccc1S(=O)(=O)C2 -14.2%
COc1ccccc1CNC(=O)CCc1c(C)nn(-c2ccc(N3CCCCC3)nn2)c1C -10.4%
Cc1ccc(Cl)cc1N1CCN(C(=O)CCS(=O)(=O)c2ccc3c(c2)oc(=O)n3C)CC1 1.9%
Cc1cccc(CN2CCN(C(c3ccccc3)c3ccc(Cl)cc3)CC2)c1 (stereo not drawn) 2.97%
CCOc1ccc(-n2c(=O)c3c(C)c(C(=O)N(C)C)sc3n(Cc3cc(C)ccc3C)c2=O)cc1 -9.52%
Cc1ccc(S(=O)(=O)C(CNC(=O)C(=O)NCc2ccc(Cl)cc2)c2ccco2)cc1 (stereo not drawn) -8.1%
CCOc1ccccc1CNC(=O)c1oc2ccc3c(c2c1C)C(=O)CC(C)(C)O3 -17.4%
O=c1c2sc3ccccc3c2n(Cc2ccc(F)cc2Cl)c(=O)n1Cc1ccccc1 -1.3%
CN(C(=O)CSc1nc2ccccc2n1Cc1ccccc1C#N)c1ccccc1 -6.2%
Cc1ccc2onc(CNC(=O)N3CCN(c4cccc(C(F)(F)F)c4)CC3)c2c1 10.5%
CCN(CC)S(=O)(=O)c1ccc(N2CCCCS2(=O)=O)cc1 -4.52%
CCn1cc(S(=O)(=O)c2ccc(Cl)cc2)c(=O)c2cc(F)c(N3CCOCC3)cc21 -3.28%
Cc1ccc2oc(-c3ccc(C)c(NC(=O)c4ccc(-c5ccccc5[N+](=O)[O-])o4)c3)nc2c1 -3.7%
CCOc1ccc(S(=O)(=O)N(CC(=O)Nc2ccc3c(c2)OCO3)c2ccc(C)cc2)cc1 -6.62%
COC(=O)c1ccc2nc(C)cc(Nc3cccc(Cl)c3C)c2c1 -25%
CCCCCCCCCCCCCC[N+](C)(C)Cc1ccccc1 -1.51%
COCC(=O)Nc1c(C(=O)Nc2ccc(C)cc2)oc2ccccc12 -3.61%
Cc1ccc(NC(c2nnc(-c3ccccc3)o2)c2ccccc2F)c(Cl)c1 (stereo not drawn) -8.38%
COc1cc(CN(C(=O)c2ccc(Cl)cc2)C2CCS(=O)(=O)C2)cc(OC)c1OC (stereo not drawn) -14.9%
